Experimental data published in PubChem BioAssay AID686979 (National Center for Advancing Translational Sciences (NCATS), 2013).
The whole screen tested about 420,000 compounds, of which about 50,000 (12%) were called active. This list was built around the results that the source calls inconclusive (neither active nor inactive); the mix of calls is not that of the screen. Calls follow the shape of the dose curve; as a rule, active = well fitted inhibition curve with a large enough effect; inconclusive = small, poorly fitted or top-dose-only effect; inactive = flat fitted curve, though single readings scatter. Potencies of inconclusive entries are left out as doubtful fits.

Assay: qHTS for Inhibitors of human tyrosyl-DNA phosphodiesterase 1 (TDP1): qHTS in cells in presence of CPT; also: nearly all actives have a fitted effect of over 55% in size
Settings: chicken DT40 Tdp1-/-;hTDP1 cells + 20 nM CPT, ATP luminescence, 48 h; activity change, negative = growth inhibition: at 46.2 µM (top of the series) unless noted
Method in brief: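 Cell growth measured by CellTiter-Glo luminescence after a minimum 48 h, 37 C compound exposure with 20 nM CPT in Tdp1-knockout DT40 cells stably expressing hTDP1, seeded 400/well; qHTS titration format.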
% is scaled to controls: 0 for no effect and ±100 for the full control effect; potency is read from the fitted curve at half-maximal effect; tags tell the direction and shape of the fitted curve.

SMILES	activity change, negative = growth inhibition	Potency
COc1ccc(CC(=O)OCC(=O)Nc2ccc3[nH]c(=O)[nH]c3c2)cc1OC	inactive: 2.6%	
CC(=O)C1=C(O)C(=O)N(c2cc(C(C)(C)C)on2)C1c1ccc(Br)cc1 (stereo not drawn)		inconclusive [inhibitor, single point]
COC(=O)c1cc(NC(=O)Cc2cccs2)cc(C(=O)OC)c1	inactive: 4.29%	
C[C@@H]1CCC[C@@]2(O[C@@H](CCO)C[C@@H](O)[C@@H]2O)O1	inactive: -4.8%	
CC1(C(=O)NC2CCCCCCC2)CC1(Cl)Cl (stereo not drawn)	inactive: -23.2%	
COc1ccc2cnn(CCOc3cc(C)ccc3C(C)C)c(=O)c2c1OC		active: 16.4 µM
Cc1cc(C)nc(Nc2nc(C(N)Cc3ccc(Cl)cc3)cs2)n1 (stereo not drawn)		active: 18.4 µM
O=C(N/N=C/C1C(c2ccccc2)C1(Cl)Cl)c1cccc(Br)c1 (stereo not drawn)		inconclusive [inhibitor, partial curve]
O=C(NCC(=O)N1CCN(c2ccc(C(F)(F)F)cn2)CC1)c1ccc(Br)o1		active: 20.6 µM
Cc1cc(C(=O)CN2C(=O)NC(c3ccccc3)(c3ccccc3)C2=O)c(C)n1Cc1ccccc1		inconclusive [inhibitor, single point]
CC(=O)c1c(C)nn(CC(=O)NC2CCCN(Cc3ccc(CC(C)C)cc3)C2)c1C (stereo not drawn)		active: 20.6 µM
CCNC(=O)C1(C)CCN(C(=O)c2c(F)ccc(C)c2F)C1 (stereo not drawn)	inactive: -2%	
Cc1nc2cnc(N3CCNCC3)nc2n(C2CC2)c1=O	inactive: 1.13%	
CCC[C@H]1CN(c2ccccc2)C(=O)[C@@H]1CC(=O)Nc1ccc(OC)cc1		inconclusive [inhibitor, single point]
C=CCn1c(=S)[nH]c2sc3c(c2c1=O)CCC3		inconclusive [inhibitor, partial curve, poor fit]
CCN(CC)C(=O)c1[nH]cnc1C(=O)NC1CCN(C(=O)OC(C)(C)C)CC1	inactive: -3.21%	
CN(CC(=O)Nc1ccc(Cl)cc1)C(=O)CCc1nc2sc3c(c2c(=O)[nH]1)CCCC3		inconclusive [inhibitor, single point]
CN(C)c1ccc(C(=O)NCc2ccc3c(c2)CCN3C(=O)c2ccccc2)cc1		active: 16.4 µM
Cc1ccc(Nc2nc(Cl)nc(NC3CCCCC3)n2)cc1		inconclusive [inhibitor, single point]
Cc1ccc(C(=O)N2CCC(C(=O)NCc3cccnc3)CC2)cc1	inactive: -2.52%	
Cc1nn(Cc2ccc([N+](=O)[O-])cc2)c(=O)n1-c1ccccc1Cl	inactive: 1.02%	
CCOC(=O)c1[nH]c2ccc(C)cc2c1N		inconclusive [inhibitor, single point]
CCOc1ccccc1C(=O)N[C@H](C(=O)Nc1nc2c(s1)CCCC2)C(C)C		active: 16.4 µM
Cc1ccc(-c2nc3ccc(C)cn3c2CC2CCCCC2)cc1		inconclusive [inhibitor, single point]
CCOCc1cc(=O)[nH]c(SC)n1	inactive: -5.07%	

SMILES	activity change, negative = growth inhibition	Potency
CN(C)c1ccc(/C=C/c2ccc3ncccc3c2)cc1		inconclusive [inhibitor, single point]
COC(=O)C1(C(=O)OC)CCCCN(S(=O)(=O)c2ccc(C)cc2)CCC1		inconclusive [inhibitor, single point]
CCOC(=O)c1cc(NC(=O)c2c(C)noc2C)cc(C(=O)OCC)c1	inactive: -21.8%	
CSc1ccc(CNC(=O)Cn2ccc3cc(S(=O)(=O)N4CCCC4)ccc32)cc1		inconclusive [inhibitor, single point]
Cn1cccc1/C=C1\SC(=Nc2ccc(O)cc2)NC1=O		active: 0.0411 µM
COc1cc(/C=C(\C#N)C(=O)NCc2ccccc2)ccc1OCc1ccc(C(=O)O)cc1		inconclusive [inhibitor, single point]
O=C(N/C(=C/C=C/c1ccccc1)C(=O)N1CCCCC1)c1ccc([N+](=O)[O-])cc1		inconclusive [inhibitor, single point]
Cc1cccn2cc(-c3ccc(Cl)cc3)nc12		inconclusive [inhibitor, single point]
Cc1ccccc1-n1cc(-c2ccc(Br)cc2)nc1SCC(N)=O		inconclusive [inhibitor, single point]
Nc1[nH]n2c(=O)c3c(nc2c1N=Nc1ccccc1)CCCC3		inconclusive [inhibitor, single point]
CC1CCN(c2nc(-c3ccc(Br)cc3)nc3ccccc23)CC1		inconclusive [inhibitor, single point]
O=C(CN1CCN(S(=O)(=O)c2ccc3c(c2)OCCCO3)CC1)N1CCc2ccccc21		inconclusive [inhibitor, single point]
Cc1cc(C)c2c(=N)c3ccccc3n(CCCCCCCCn3c4ccccc4c(=N)c4c(C)cc(C)nc43)c2n1		active: 10.3 µM
Cc1ccc(-c2cc(C(F)(F)F)c(C#N)c(SCC(=O)Nc3ccccc3F)n2)cc1		inconclusive [inhibitor, full curve, poor fit]
CC(=O)c1ccc(Oc2cc(C)nc(N3CCOCC3)n2)cc1	inactive: -7.12%	
CCc1ccccc1N(C(C)=O)c1nc(CCl)cs1		active: 14.6 µM
O=C(N/N=C\c1ccc(OC(=O)c2cccs2)cc1)c1ccc(Cl)cc1		inconclusive [inhibitor, single point]
Cc1ccc(-c2n[nH]c(=S)n2/N=C/c2sccc2C)cc1	inactive: 6.08%	
Cc1ccc2cc(C(c3nnnn3C3CCCC3)N(Cc3ccco3)Cc3cccs3)c(=O)[nH]c2c1 (stereo not drawn)		active: 23.1 µM
CCOc1ccc(NC(=O)CN(C)C(=O)c2ccccc2OCc2cccc(C)c2)cc1OCC		inconclusive [inhibitor, partial curve, poor fit]
COc1cc(Cl)c(NS(=O)(=O)c2ccc(-c3coc(C)n3)cc2)c(OC)c1		active: 3.66 µM
CC1CCCCN1CCCNC(=O)Cn1ncc2c3ccccc3n(Cc3ccccc3F)c2c1=O (stereo not drawn)		inconclusive [inhibitor, single point]
COc1cc(C(=O)Nc2nnc(C)s2)c([N+](=O)[O-])cc1OC	inactive: 13.6%	
O=C(Nc1ccc(F)cc1)c1nc[nH]c1C(=O)Nc1ccc([N+](=O)[O-])cc1		inconclusive [inhibitor, single point]
CCc1ccc(OC)c(S(=O)(=O)N2CCN(C(=O)c3ccco3)CC2)c1		inconclusive [inhibitor, single point]

SMILES	activity change, negative = growth inhibition	Potency
O=S(=O)(Nc1ccc(-c2nnc(SCc3ccc(Cl)cc3)o2)cc1)c1ccccc1		inconclusive [inhibitor, single point]
O=C(c1ccccc1-c1ncc[nH]1)N1CCc2c([nH]c3ccccc23)C1c1ccccn1 (stereo not drawn)		inconclusive [inhibitor, single point]
Cc1ccc(S(=O)(=O)CC(=O)Nc2nc(-c3ccccc3)cs2)cc1	inactive: -17.5%	
CCN1CCc2c(C#N)c(NCc3ccccc3)nc(N(CC)CC)c2C1		inconclusive [inhibitor, single point]
CC(C)Cc1nnc(NC(=O)c2ccc(-n3cncn3)c([N+](=O)[O-])c2)s1	inactive: -19.6%	
COc1cccc(CNC(=O)CN2C(=O)CSc3ccc(S(=O)(=O)N4CCCC4)cc32)c1		inactive
Cc1ccc(C(C)NC(=O)c2ccncc2)c(C)c1 (stereo not drawn)		inconclusive [inhibitor, partial curve, poor fit]
COc1ccc(NC(=O)CSc2nccn2Cc2ccccc2)cc1		inconclusive [inhibitor, partial curve, poor fit]
O=C(CSc1nc2ccccc2s1)N1c2ccccc2Sc2ccccc21		inconclusive [inhibitor, partial curve]
Cc1cc(C)c(NC(=O)CN2C(=O)CCSc3ccc(S(=O)(=O)N4CCCC4)cc32)c(C)c1	inactive: -8.06%	
Cc1n[nH]c(C)c1CN(C)C(=O)C1CCC(=O)N(CCc2cccc(F)c2)C1 (stereo not drawn)	inactive: 0.691%	
CCN(Cc1ccccc1)C(=O)C(CC(C)C)NS(=O)(=O)c1ccc2c(c1)CCN2C(C)=O (stereo not drawn)		inconclusive [inhibitor, single point]
COc1ccc2c(c1)CCCC2NS(=O)(=O)OCC(Cl)(Cl)Cl (stereo not drawn)	inactive: -25.3%	
CCOC(CNC(=O)c1ccc2c(c1)nc(C)n2-c1cccc(F)c1)OCC		inconclusive [inhibitor, full curve, poor fit]
CC(C)Cn1c(N)c(C(=O)COC(=O)C2Cc3ccccc3CN2S(C)(=O)=O)c(=O)n(C)c1=O (stereo not drawn)		active: 6.51 µM
O=C(c1ccccc1)N1CCCCC1CCN1CCCCC1 (stereo not drawn)	inactive: -29.4%	
O=C(CNC(=O)c1ccc(Cl)c([N+](=O)[O-])c1)OCN1C(=O)c2ccccc2C1=O	inactive: -2.9%	
CC(=O)NC1=NN(C(C)=O)C(C)(c2ccccc2)S1 (stereo not drawn)		active: 5.8 µM
Cc1ccc(C2=C/C(=C/c3cccnc3)C(=O)O2)c(C)c1		inconclusive [inhibitor, full curve]
Cc1cccc(N2CCN(C(=O)c3nn(C)c4c3CS(=O)(=O)c3ccccc3-4)CC2C)c1 (stereo not drawn)		active: 23.1 µM
CCOc1ccc(NC(=O)C23CC4CC(C2)CC(c2ccccc2)(C4)C3)cc1		inconclusive [inhibitor, single point]
C[C@H]1CN([C@@H](C)CO)S(=O)(=O)c2ccc(Br)cc2O[C@H]1CN(C)C(=O)Cc1ccncc1	inactive: 4.03%	
C#CCn1c2ccccc2c(=O)n1CCOc1ccccc1OC		inconclusive [inhibitor, single point]
